For orientation: % Inhibition means the relative decrease from the control value, in per cent.

Each structure is given as a SMILES string. About 540 (0.36%) of roughly 150,000 compounds showed an effect of 50% or more. The list shows a part of the results.

This assay relates to Plasmodium falciparum. Kind of assay: Primary screen in NF54 nanoGlo assay, in single point, at 2uM, 72h; a lower Z score goes with more inhibition. The format is functional, Erythrocyte. The conditions noted are these: timepoint 72 hour.
Turning to `CC(C)C[C@@H](NC(=O)[C@H]1CC[C@H](CNC(=O)[C@@H](N)C(C)C)CC1)C(=O)O`, the “% Inhibition” value is on record as 2% and the Z score is given as -0.3.
As to `C=CCNC(=O)N1CCc2nc(N3CCCCC3)nc(N3CCC(C)CC3)c2C1`, the “% Inhibition” value is reported as -13% and the Z score was determined as 1.65.
For `Cc1cc(Cl)c(C(=O)NS(=O)(=O)CCCC#N)cc1C`, in that order: 12% and -1.34.
For `O=C(NCCc1cccs1)N1CCC([C@H](O)C(F)(F)F)CC1`, the “% Inhibition” value was -10% and the Z score came to 1.78.
For `COc1cccc(OC)c1OCc1noc(CC2CCCC2)n1`, in that order: -14% and 2.25.
The matching figures for `CN(CCCC#N)Cc1cccc(C#N)c1`: -13% and 1.29.
The matching figures for `COc1ccc(CN2C[C@H]3CN(Cc4cccc(C)n4)CCN3C2=O)cc1`: 3% and -0.44.
As to `COc1ccccc1[C@H](CNS(=O)(=O)c1cccs1)N1CCCC1`, the “% Inhibition” value is reported as -3% and the Z score amounted to 0.53.
For `c1ccc(NCc2ccccc2OCCN2CCOCC2)nc1`, in that order: -2% and 0.25.
The matching figures for `C=CCOC1CCN(C(=O)C2CC2c2cnn(C)c2)CC1` (centres undefined): -5% and 0.42.
The matching figures for `COc1ccc(Nc2ssc(=O)c2Cl)cc1OC`: -9% and 1.67.
In the case of `O=C(O)C1CC1C(=O)NC(C1CCCC1)C(F)(F)F` (centres undefined), the “% Inhibition” value stood at 3% and the Z score is -0.56.
For the compound `C[C@]1(O)CCN(C(=O)c2ccc3[nH]ccc3c2)C[C@H]1Cc1ccccc1`, the “% Inhibition” value is on record as -7% and the Z score is 1.13.
The matching figures for `CCCc1cnc(N2CCN(C)C(=O)C2)nc1`: -10% and 1.97.
For `COCCN1C[C@@H](Cc2cc(C)c(O)c(C)c2)CC1=O`, in that order: -13% and 1.88.
For `CCc1onc(C)c1[C@@H]1CCCN1C(=O)NCc1ccc(F)cc1`, in that order: -1% and 0.08.
As to `CN1CCN(C(=O)Nc2ccc3c(c2)N(C)S(=O)(=O)N3C)CC1`, the “% Inhibition” value is reported as -3% and the Z score was determined as 0.38.
In the case of `CO[C@H]1CN(c2ccc(C)cc2)C12CCN(C(=O)C(C)C)CC2`, the “% Inhibition” value is recorded as -19% and the Z score was determined as 2.42.
For `Nc1ccc(Oc2ccc3nc(-c4ccc(Br)cc4)c(-c4ccc(Br)cc4)nc3c2)cc1`, in that order: 3% and -0.34.
The matching figures for `CO[C@H]1C[C@H]2CC[C@@H](C1)N2c1nc2ccccc2o1`: -8% and 1.16.
For `COc1cccc2c(N3CCN(c4nccnc4C)CC3)ccnc12`, in that order: -2% and 0.37.
In the case of `CC(C)c1csc(C(=O)NCc2n[nH]c(=O)[nH]2)n1`, the “% Inhibition” value is reported as -2% and the Z score was found to be 0.41.
As to `Cc1cc(C(=O)Nc2cccc(N3CCCC3=O)c2)c(C)s1`, the “% Inhibition” value is recorded as -4% and the Z score was found to be 0.54.
For `CN(C)[C@@H]1C[C@@H](CO)N(Cc2cccc3c2oc2ccccc23)C1`, in that order: 5% and -0.91.
For `C[C@H]1CNC(=O)CCN1C(=O)c1cc(=O)[nH]c2ccccc12`, in that order: -5% and 0.75.
For `c1ccc(-c2cc(CN(CCn3cccn3)Cc3cc(-c4ccccc4)no3)on2)cc1`, in that order: -7% and 1.16.
As to `O=C(COc1ccc(Br)cc1)N(Cc1nnc(-c2ccc(Cl)cc2)o1)C1CCCC1`, the “% Inhibition” value is given as -4% and the Z score was found to be 0.52.
The matching figures for `COC(=O)NS(=O)(=O)Nc1ccc(Cl)cc1`: -7% and 0.88.
For `Cc1ncc(CCNC(=O)N[C@H]2CCOCC23CCCC3)s1`, in that order: -8% and 1.44.
For `CN(C)c1ccc(NC(=O)C2CCC(c3ccccc3)N(C(=O)NCc3ccccc3)C2)cc1` (centres undefined), the “% Inhibition” value is 2% and the Z score is -0.21.
For `O=C1NC[C@H]2O[C@H](CCOc3ccccc3C(=O)N3CCN(C4CCCCC4)C[C@@H]13)CC[C@H]2n1cc(CN2CCOCC2)nn1`, in that order: 16% and -1.82.
The matching figures for `CCC(=O)N1CCCNC(=O)[C@@H]1Cc1ccccc1`: -9% and 1.01.
The matching figures for `CCc1nnsc1C(=O)NCc1ccc(N2CCCCC2)nc1`: 1% and -0.25.
On to `COc1cccc(Cn2c(=O)c(C(=O)NCc3ccccn3)nn(-c3ccc(C)c(C)c3)c2=O)c1`, for which the “% Inhibition” value is listed as -7% and the Z score is given as 0.89.
The matching figures for `COc1ccc(Cn2ncc(C)c2NC(=O)c2scnc2C2CC2)cc1OC`: -8% and 1.06.
Take `CC(=O)NC1(c2noc(C3CCCCCCC3)n2)CCN(C)CC1`: the “% Inhibition” value is reported as -11% and the Z score is recorded as 1.16.
As to `COc1ccccc1N1CCN(c2ncccc2CNC(=O)C2CCCC2)CC1`, the “% Inhibition” value is recorded as -23% and the Z score stood at 1.99.
For `CC1C(=O)NCCN1C(=O)C1C2CCCCC21` (centres undefined), in that order: -7% and 0.84.
For `CN(Cc1ccc(-n2cccn2)cc1)C[C@H]1CCOC1`, in that order: -15% and 2.93.
The matching figures for `CCn1cc(CNC(=O)[C@H]2CCCN(S(=O)(=O)c3cnn(C)c3C)C2)cn1`: -4% and 0.45.
On to `Cc1noc(C)c1CCC(=O)N(C)C1CCCCCCC1`, for which the “% Inhibition” value is -6% and the Z score is recorded as 0.87.
The matching figures for `CCOc1ccnc(NCC2(Cn3cccn3)CC2)n1`: -18% and 2.12.

The values are drawn from ChEMBL document CHEMBL4888484, “Replenishing the malaria drug discovery pipeline: Screening and hit evaluation of the MMV Hit Generation Library 1 (HGL1) against asexual blood stage Plasmodium falciparum ,using a nano luciferase reporter read-out” (2022).
